# Test results reported in ChEMBL document CHEMBL1156829.
# The full ranking holds about 5,400 compounds; the median of “IFI” is about 2, and the highest 2% start at about 22. The list shows a part of the results.
# Test: NOVARTIS: Inhibition Frequency Index (IFI) - the number of HTS assays where a compound showed > 50% inhibition/induction, expressed as a percentage of the number of assays in which the compound was tested.
# Assay type: functional
row,Compound,IFI [%]
1,CCOC(=O)N1CCN(c2ccc(C(F)(F)F)cn2)CC1,0
2,CC(=O)Nc1ccc(C(C)=NNc2nc(Nc3cc(C)ccc3C)nc(N3CCOCC3)n2)cc1,0
3,N=c1c2c(n(CCc3ccccc3)c3c1CCC3)CCCC2,8.2
4,Cc1oc2c(c1C(=O)NC1CCS(=O)(=O)C1)C(=O)c1ccccc1C2=O (configuration not stated),29.7
5,CCOC(=O)c1ccc(NC(=O)c2cc3ccccn3n2)cc1,7.69
6,O=C(Nc1ccccc1O)c1ccc(Cl)cc1,5.13
7,O=C(Nc1ccccc1Cl)NC1(C(=O)NCC2CCCO2)CCCCC1 (configuration not stated),0
8,COc1cc(OC)nc(C(Sc2ccc(NC(=O)c3cccs3)cc2)c2ccccc2)n1 (configuration not stated),0.787
9,c1ccc2c(NCCc3c[nH]c4ccccc34)c3ccccc3nc2c1,5.88
10,Brc1ccc(Nc2nc(NCC3CCCO3)c3ccccc3n2)cc1 (configuration not stated),5.56
11,Cc1ccccc1NC(=O)N(CCCNC(=O)CCl)c1ccccc1,2.78
12,CCOC(=O)C1=C(C)NC2=C(C(=O)CC(c3ccc(OC)cc3)C2)C1c1ccccc1F (configuration not stated),3.49
13,CCOC(=O)c1nnn(-c2nonc2-n2cccc2)c1CN1CCCCC1,0
14,CCN(CC)CCN(Cc1cc2cc(OC)ccc2[nH]c1=O)C(=S)Nc1ccc(F)cc1,3.67
15,N#Cc1c2c(c(N3CCN(Cc4ccc(F)cc4)CC3)n3c1nc1ccccc13)CCC2,0
16,COC(=O)C1=C(C)NC2=C(C(=O)CC(C)(C)C2)C1c1ccc(C)o1 (configuration not stated),0.862
17,COc1cccc(NC(=O)N(Cc2ccccc2)C(C)c2nc3ccccc3c(=O)n2-c2cc(C)ccc2OC)c1 (configuration not stated),3.19
18,CC(C)CNc1nc(NCCCn2ccnc2)ncc1C(=O)NCCc1ccccc1,1.91
19,COc1cccc(CNC(=O)Cn2ncc3c(=O)oc4ccc(C)cc4c32)c1,0
20,O=C(NCCN1CCCCC1)c1ccc(OC2CCN(CC3CCCCC3)CC2)c(Cl)c1,8.57
21,COC(F)(C(=O)Nc1c(C)n(C)n(-c2ccccc2)c1=O)C(F)(F)F (configuration not stated),0
22,COC(=O)c1cccc(NC(=O)/C(=C\c2cccc([N+](=O)[O-])c2)NC(=O)c2ccccc2OC)c1,0
23,CCOc1ccc2nc(C)cc(Nc3ccc(C)c(Cl)c3)c2c1,7.84
24,COc1ccc(C2Nc3ccc4ccccc4c3C3=C2C(=O)CC(C)(C)C3)cc1Br (configuration not stated),0
25,Cc1ccc(C2CC(C(F)(F)F)n3ncc(C(=O)Nc4ccc(OC(F)(F)F)cc4)c3N2)cc1 (configuration not stated),0

row,Compound,IFI [%]
1,Nc1ccc(-c2nc3ccc(-c4nc5ccc(N)cc5[nH]4)cc3[nH]2)cc1,2.56
2,COc1ccc(NC(=O)CN2CCN(S(=O)(=O)c3cccc([N+](=O)[O-])c3)CC2)c(OC)c1,0
3,CCCN(CCC)CCCNc1ccc(C(=O)Nc2cccc(OC)c2)cc1[N+](=O)[O-],0
4,CCOc1ccc(NC(=O)N(CCC(C)C)C(C)c2nc3ccccc3c(=O)n2-c2cccc(Cl)c2C)cc1 (configuration not stated),1.06
5,c1ccc2[nH]c(Sc3ncnc4sc5c(c34)CCC5)nc2c1,1.51
6,COC(=O)[C@@H]1C[C@H](NC(=O)c2ccc(OC)cc2OC)CN1Cc1cccc2ccccc12,1.85
7,CCCOC(=O)C1=C(C)NC2=C(C(=O)CC(c3ccccc3)C2)C1c1ccc(Cl)cc1Cl (configuration not stated),3.66
8,OC(CN1CCN(CC(O)Cn2c3ccccc3c3cc(Br)ccc32)CC1)Cn1c2ccccc2c2ccccc21 (configuration not stated),7.14
9,CCOC(=O)N1CCC(N2C(=O)c3ccccc3C2Nc2ccc(OCC)cc2)CC1 (configuration not stated),0
10,COc1cc2c(cc1OC)C1=NNC(=O)C1=NC(C)(C)C2,7.14
11,CCOC(=O)C1=C(CC)NC2=C(C(=O)CCC2)C1c1ccc(OC)c(Br)c1 (configuration not stated),3.49
12,CC(C)(C)C1=CC(=C2C=C(C(C)(C)C)SC(C(C)(C)C)=C2)C=C(C(C)(C)C)S1,3.66
13,Cc1ccccc1Cn1cc(NC(=O)c2cc(-c3cccs3)on2)cn1,0
14,FC(F)(F)c1cnc(Sc2nnc(-c3ccncc3)o2)c(Cl)c1,10
15,COc1ccc2[nH]c(SCC(=O)Nc3cccc(NC(=O)CSc4nc5cc(OC)ccc5[nH]4)n3)nc2c1,13.1
16,Cc1ccc(C(OCC(C)(C)C[N+](C)(C)C)c2ccccc2)cc1 (configuration not stated),2.22
17,CCOC(=O)c1[nH]c2ccc(OC)cc2c1N=NN(C)C,6.3
18,COCCNC(=O)[C@@H]1C[C@@H](Sc2nc3ccccc3[nH]2)CN1Cc1ccc2ccccc2c1,8.82
19,CC1=C(C(=O)Nc2ccc(C)cc2C)C(c2cc(Br)ccc2F)n2ncc(C(=O)Nc3ccc(C)cc3)c2N1 (configuration not stated),0
20,COC(=O)C1=C(C)NC2=C(C(=O)CC(c3ccccc3)C2)C1c1ccc(Cl)cc1 (configuration not stated),2.3
21,CCC(C(=O)Oc1ccccc1-c1nc2cc(C)ccn2c1NC(C)(C)CC(C)(C)C)c1ccccc1 (configuration not stated),3.74
22,O=C(NNS(=O)(=O)c1ccccc1[N+](=O)[O-])c1ccccc1,0
23,C/C=C/c1n(C)c2ccccc2[n+]1C,4.35
24,COC(OC)C(C)=NNC(N)=S,16.8
25,Cc1noc(C)c1S(=O)(=O)N(Cc1ccccc1)CC(O)CN1CCC(NC(=O)c2ccc(F)cc2)C1 (configuration not stated),0.971

row,Compound,IFI [%]
1,CCC(CC)CN1CCC(O)(c2ccc3oc(C(=O)Nc4ccc(OC)c(OC)c4)cc3c2)CC1,3.45
2,CCCCC(CC)C(=O)N1CCN(C(C)c2nc3ccc(Cl)cc3c(=O)n2C)CC1 (configuration not stated),0
3,COc1ccccc1N1CCN([C@@H]2CCN(Cc3cccnc3)C[C@@H]2CCC(=O)N2CCCC2)CC1,2.68
4,Cc1cccc(CSc2nnc(C(Cc3ccccc3)NC(=O)C3CCCCC3)n2-c2ccc(Cl)cc2Cl)c1 (configuration not stated),1.07
5,CC(C)(C)NCC(O)Cn1c2ccc(I)cc2c2cc(I)ccc21 (configuration not stated),4.05
6,COc1ccc(NC(=O)C2=C(C)NC(=S)NC2c2ccc(O)cc2)cc1 (configuration not stated),0
7,O=C(CCn1c(=O)[nH]c2ccccc21)NCC1Cc2cccc(-c3ccncc3)c2O1 (configuration not stated),0
8,COc1ccc(CN2CCOc3ccc(C(C)(O)CN(C)C)cc3C2)cc1C (configuration not stated),0
9,COc1ccc(C2CC(=O)C3=C(C2)NC(=O)CC3c2ccc(C(F)(F)F)cc2)cc1OC (configuration not stated),0
10,COc1cccc(Nc2nc(NCCO)c3ccccc3n2)c1,1.47
11,CCCCCCN(C(=O)c1ccccc1)C(CC)c1nc2ccccc2c(=O)n1-c1ccccc1OC (configuration not stated),1.03
12,COc1cc(NC(C)CCCN(Cc2ccccc2OC)S(=O)(=O)c2ccc(Br)cc2)c2ncccc2c1 (configuration not stated),4.25
13,COc1cc2ccccc2cc1C(=O)NCCOC12CC3CC(CC(C3)C1)C2,2.15
14,CN(CCCNc1ccnc2cc(Cl)ccc12)C(=O)c1ccccc1,1.87
15,CCc1[nH]nc2c1C(Cc1ccccc1)C(C#N)=C(N)O2 (configuration not stated),1.54
16,COc1cc(/C=C/c2nc(O)nc(O)c2[N+](=O)[O-])cc(Br)c1O,7.69
17,COc1ccc(OC)c(-c2ccc(O)c(CNCC3CCCCC3)c2)c1,5.88
18,OC(CN1CCN(Cc2ccccc2)CC1)Cn1c2ccc(Cl)cc2c2cc(Cl)ccc21 (configuration not stated),1.15
19,COC(=O)c1ccc(C2C3=C(O)CC(c4cccs4)CC3=Nc3ccccc3N2C(=O)c2ccccc2)cc1 (configuration not stated),2.5
20,C[n+]1ccccc1/C=C/C1=C(c2ccccc2)Oc2ccccc2O1,11.1
21,Fc1ccc(-c2cn3c([n+]2-c2ccccc2)SCC3)cc1,1.04
22,CC(C)CNC(=O)c1cnc(NCCCN2CCCC2)nc1NC1CCCC1,1.91
23,CCCOC(=O)C1=C(C)NC2=C(C(=O)CC(c3ccc(OC)cc3)C2)C1c1ccc(Cl)cc1Cl (configuration not stated),2.35
24,COc1ccc(CNCCN2CCN(c3ccc(C)cc3)C[C@@H]2c2ccccc2)cc1,3.75
25,OC(Cn1cnc(-c2ccccc2)c1-c1ccccc1)Cn1c2ccc(Cl)cc2c2cc(Cl)ccc21 (configuration not stated),2.33

row,Compound,IFI [%]
1,CC(=O)Nc1nc(C)c(-c2csc(Nc3ccc(Br)cc3)n2)s1,4.81
2,Cc1noc(C)c1S(=O)(=O)N(Cc1ccccc1)CC(O)CN1CCC(NC(=O)c2cccc3ccccc23)C1 (configuration not stated),2.91
3,O=C(O)C1Cc2c([nH]c3ccccc23)C(c2ccc(Cl)cc2Cl)N1 (configuration not stated),0
4,CC(C)CNC(=O)c1cc(NC(=O)c2cccs2)ccc1N1CCc2ccccc2C1,1.09
5,Cc1c(C(=O)N2CCN(c3ccc([N+](=O)[O-])cc3)CC2)sc2ncnc(N(C)c3ccccc3)c12,1.16
6,O=C(Nc1ccc(C(=O)Nc2cccc(C3=NCCN3)c2)cc1)c1ccc(C2=NCCN2)cc1,0.87
7,CC1CC(=O)NN=C1c1ccc(NC(=O)c2ccccc2)cc1 (configuration not stated),14.3
8,N#Cc1cc(Oc2ccc(-c3cnc4ccccc4n3)cc2)nc2ccccc12,0
9,CCCC(=O)N(CCCC(C)Nc1cc(OC)cc2cccnc12)Cc1ccc(F)cc1 (configuration not stated),1.94
10,CC1=C(C(=O)OC(C)C)C(c2ccccc2F)C2=C(CC(c3ccc(Cl)cc3)CC2=O)N1 (configuration not stated),2.22
11,Cc1ccc2c(c1)C1CN(C)CCC1N2C(=O)c1cc2ccccc2o1 (configuration not stated),0
12,C=CCn1c(=N)n(CC(O)c2ccc(Cl)c(Cl)c2)c2ccccc21 (configuration not stated),9.52
13,CC(C)CC(N)C(=O)N1CCc2nc(Cc3ccc(F)cc3Cl)sc2C1 (configuration not stated),4.22
14,c1ccc(Cn2c(N=NNc3nc4ccccc4n3Cc3ccccc3)nc3ccccc32)cc1,6.03
15,Cc1cc(C)nc(SCc2cc(=O)c(OC(=O)c3ccccc3Br)co2)n1,0
16,CCCCCCCCCC(=O)N1CCN(C(CC)c2nc3ccccc3c(=O)n2C)CC1 (configuration not stated),4.63
17,Cn1c(=NC(=O)c2ccc(S(=O)(=O)N3CCCCC3)cc2)sc2cc(Cl)ccc21,0
18,Nc1ccc(C(=O)Nc2ccc(-c3nc4ccccc4o3)cc2)cc1,7.69
19,Cc1ccc(C2Sc3ccccc3NC3=C2C(=O)c2ccccc23)cc1 (configuration not stated),2.17
20,CCC(=O)NC(c1cccc([N+](=O)[O-])c1)c1ccc2cccnc2c1O (configuration not stated),0
21,CC[n+]1c(C=CN(C)c2ccccc2)sc2ccc(Cl)cc21,9.09
22,CCC(c1nc2ccccc2c(=O)n1-c1ccccc1OC)N(CCc1ccccc1)C(=O)c1cccc(C(F)(F)F)c1 (configuration not stated),3.26
